The target of test [1] is T1, human LAG-3 (His tag) (human, UniProt P18627 23-450, limits assumed).
T1 construct: also called LAG-3-His antigen; not shown: His tag
T1 sequence (looked up): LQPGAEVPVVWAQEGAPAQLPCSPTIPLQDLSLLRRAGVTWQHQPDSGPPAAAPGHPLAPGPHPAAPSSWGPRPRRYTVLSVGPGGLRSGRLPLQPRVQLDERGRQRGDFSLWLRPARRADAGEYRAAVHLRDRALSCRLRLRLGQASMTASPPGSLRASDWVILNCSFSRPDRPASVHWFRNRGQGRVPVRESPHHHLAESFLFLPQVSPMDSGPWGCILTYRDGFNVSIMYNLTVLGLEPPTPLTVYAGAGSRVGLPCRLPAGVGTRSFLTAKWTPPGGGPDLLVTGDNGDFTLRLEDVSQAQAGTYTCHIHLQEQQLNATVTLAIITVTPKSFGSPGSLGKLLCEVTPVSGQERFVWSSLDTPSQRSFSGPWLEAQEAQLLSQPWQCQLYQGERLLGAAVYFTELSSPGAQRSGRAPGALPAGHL
Put plainly: BLI (ForteBio Octet), LAG-3 His on Ni-NTA sensor. On the procedure:
The binding affinity constant of the purified murine monoclonal antibody #27 to the antigen was determined by Bio-Layer Interferometry (BLI) using the instrument of a PALL company's ForteBio Octet RED & QK system.
(BLI is a label-free optical method that tracks binding on a fibre tip over time.)

The target of test [2] is T2, human LAG-3 on CHO cells (CHO-hLAG-3) (human, UniProt P18627 23-525).
T2 construct: whole, on cells; Cells prepared by Kelun Biotech Co., Ltd; also called CHO cells expressing human LAG-3
T2 sequence (looked up): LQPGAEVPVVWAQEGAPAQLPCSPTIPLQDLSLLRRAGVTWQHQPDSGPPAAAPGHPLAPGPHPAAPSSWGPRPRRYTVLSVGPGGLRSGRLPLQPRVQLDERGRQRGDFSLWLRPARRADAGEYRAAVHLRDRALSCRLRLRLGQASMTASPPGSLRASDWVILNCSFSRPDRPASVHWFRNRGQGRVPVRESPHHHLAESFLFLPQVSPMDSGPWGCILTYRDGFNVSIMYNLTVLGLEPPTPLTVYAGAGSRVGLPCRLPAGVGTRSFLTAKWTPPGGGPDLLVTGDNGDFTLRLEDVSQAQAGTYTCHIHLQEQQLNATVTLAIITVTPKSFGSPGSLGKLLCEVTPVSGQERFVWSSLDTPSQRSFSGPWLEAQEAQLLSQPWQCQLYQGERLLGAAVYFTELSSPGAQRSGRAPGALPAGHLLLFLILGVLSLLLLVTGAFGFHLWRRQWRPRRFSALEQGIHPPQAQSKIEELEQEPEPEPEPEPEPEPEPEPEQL
Briefly: flow cytometry, FITC-labelled antibody on CHO-hLAG-3 cells. On the procedure: 5×10⁵ cells per tube of CHO-cynoLAG-3 and CHO-hLAG-3 cells were taken respectively. […] The dilutions were mixed with cells at a ratio of 1:1, and incubated for 30 minutes at room temperature, followed by washing 3 times with pre-cooled PBS and detection by flow cytometry (Benckman, model CytoFlex). The signal values were input into GraphPad Prism to calculate the EC₅₀ values.
A general note: A flow cytometer gives signals particle by particle.

The term Kd denotes the constant that tells how readily two partners part at equilibrium. Low values mean a tighter complex, high ones a looser complex. The term koff denotes the first-order rate constant of dissociation. Read a high koff as fast dissociation. One may read the kon as a measure of how fast the partners come together. High values mean fast association, low ones slow association. The EC50 is the concentration that produces a half-maximal response. Low values mean greater potency, high ones weaker potency.

B1: humanized antibody AB12T8 (antibody, human IgG1, kappa)
heavy: DVQLQESGPGLVKPSQTLSLTCTVTGYSITSFYSWHWIRQFPGKGLEWMGAIQYSGDTDSNPSLKSRITITRDTSENQLFLKLSSVTAADTATYYCARSPYDSDPYYVMDYWGQGTLVTVSSASTKGPSVFPLAPSSKSTSGGTAALGCLVKDYFPEPVTVSWNSGALTSGVHTFPAVLQSSGLYSLSSVVTVPSSSLGTQTYICNVNHKPSNTKVDKKV[human IgG1 Fc with L234A L235A G237A (EU numbers) not printed]
light: DIVMSQSPDSLAVSLGERITMTCKSSQSLLYSGNQKNYLAWYQQKPGQSPTLLIYWASTRDSGVPDRLTGSGSGTDFTLTISSVQAEDVAVYYCQQYYAYPYTFGQGTKLEIKRTVAAPSVFIFPPSDEQLKSGTASVVCLLNNFYPREAKVQWKVDNALQSGNSQESVTEQDSKDSTYSLSSTLTLSKADYEKHKVYACEVTHQGLSSPVTKSFNRGEC
notes: Humanized by surface remodeling
For B1, in test [1], the affinity, expressed as Kd, was 120 pM; the koff was 1.3e-05 s⁻¹; the kon amounted to 108000 M⁻¹ s⁻¹. Besides, the midpoint of the response in test [2], the EC50, lay at 13300 pM.

B2: humanized antibody AB12T9 (antibody, human IgG1, kappa)
heavy: DVQLQESGPGLVKPSQTLSLTCTVTGYSITSFYSWHWIRQFPGKGLEWMGAIQYSGDTDSNPSLKSRITITRDTSENQLFLKLSSVTAADTATYYCARSPYDSDPYYVMDYWGQGTLVTVSSASTKGPSVFPLAPSSKSTSGGTAALGCLVKDYFPEPVTVSWNSGALTSGVHTFPAVLQSSGLYSLSSVVTVPSSSLGTQTYICNVNHKPSNTKVDKKV[human IgG1 Fc with changes not printed]
light: B1 light
notes: as for B1
B2: in test [1], the Kd came out at 298 pM, the koff amounted to 5.4e-05 s⁻¹ and the association rate constant (kon) was 181000 M⁻¹ s⁻¹.
